{"source": "paper PMC4336329", "about": "(PLoS ONE, 2015)", "note": "In all, about 310,000 compounds went through this assay and about 2,200 (0.71%) showed an effect of 50% or more. The effect is printed as a negative number. The list shows a part of the results.", "data": [{"target": "human ether-à-go-go-related gene (hERG) potassium channel (human, UniProt Q12809)", "sequence (Q12809 whole entry, looked up)": "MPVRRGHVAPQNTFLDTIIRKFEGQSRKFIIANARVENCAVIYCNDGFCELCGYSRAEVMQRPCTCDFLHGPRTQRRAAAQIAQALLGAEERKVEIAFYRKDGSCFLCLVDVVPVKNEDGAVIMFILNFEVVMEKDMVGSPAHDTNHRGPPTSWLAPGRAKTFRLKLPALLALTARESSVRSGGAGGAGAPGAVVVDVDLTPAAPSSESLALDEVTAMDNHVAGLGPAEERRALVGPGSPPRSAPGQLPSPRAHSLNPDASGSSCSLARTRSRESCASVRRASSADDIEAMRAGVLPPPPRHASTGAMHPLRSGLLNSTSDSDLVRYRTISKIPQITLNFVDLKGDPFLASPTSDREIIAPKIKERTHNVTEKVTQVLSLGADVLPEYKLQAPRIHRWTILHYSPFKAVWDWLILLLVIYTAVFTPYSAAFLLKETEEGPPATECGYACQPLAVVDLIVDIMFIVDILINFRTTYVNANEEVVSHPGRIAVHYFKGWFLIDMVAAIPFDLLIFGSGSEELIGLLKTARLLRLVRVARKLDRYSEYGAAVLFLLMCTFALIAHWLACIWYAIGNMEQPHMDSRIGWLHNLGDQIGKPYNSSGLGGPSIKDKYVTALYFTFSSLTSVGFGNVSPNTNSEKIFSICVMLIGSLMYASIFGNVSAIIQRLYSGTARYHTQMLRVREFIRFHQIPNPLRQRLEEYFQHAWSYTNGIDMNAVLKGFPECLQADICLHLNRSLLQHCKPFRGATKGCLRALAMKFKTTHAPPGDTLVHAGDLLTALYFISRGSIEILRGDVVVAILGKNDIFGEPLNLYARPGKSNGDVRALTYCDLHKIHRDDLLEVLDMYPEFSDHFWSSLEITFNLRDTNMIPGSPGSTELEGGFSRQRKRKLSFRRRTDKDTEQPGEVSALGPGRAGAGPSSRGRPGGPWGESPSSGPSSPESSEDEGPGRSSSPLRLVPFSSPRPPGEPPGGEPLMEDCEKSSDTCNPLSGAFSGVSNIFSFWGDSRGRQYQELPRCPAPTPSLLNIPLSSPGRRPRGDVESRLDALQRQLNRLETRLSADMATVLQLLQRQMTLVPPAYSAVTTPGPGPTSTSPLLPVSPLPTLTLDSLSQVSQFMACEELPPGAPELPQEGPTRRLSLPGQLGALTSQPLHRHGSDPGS", "assay": "primary screen, population patch clamp on CHO cells stably expressing hERG", "units": {"hERG current change (%, negative = inhibition) at 1uM": "%"}, "values": [{"smiles": "COc1ccc2c(COC(=O)CCS(=O)(=O)c3ccccc3)cc(=O)oc2c1", "hERG current change (%, negative = inhibition) at 1uM": -5.66}, {"smiles": "COCC(=O)Nc1nc2n(n1)C(c1ccccc1)CC(c1ccc(OC)cc1)N2", "note": "(stereo not shown)", "hERG current change (%, negative = inhibition) at 1uM": -0.0279}, {"smiles": "COC(=O)CCCSc1nccn1-c1ccccc1", "hERG current change (%, negative = inhibition) at 1uM": -11}, {"smiles": "COC(=O)c1ccc(-n2nnnc2SCc2ccccc2OC)cc1", "hERG current change (%, negative = inhibition) at 1uM": 13.7}, {"smiles": "O=C(OC(c1ccccc1)c1nccc2ccccc12)c1cccc([N+](=O)[O-])c1", "note": "(stereo not shown)", "hERG current change (%, negative = inhibition) at 1uM": 12.7}, {"smiles": "COc1ccc(CN2CCNC(=O)C2CC(=O)NCc2cccc(C)n2)c(OC)c1", "note": "(stereo not shown)", "hERG current change (%, negative = inhibition) at 1uM": 6.45}, {"smiles": "Cc1ccc(S(=O)(=O)N(C)c2ccc(C(=O)N3CCOCC3)cc2)cc1", "hERG current change (%, negative = inhibition) at 1uM": 12.6}, {"smiles": "Cc1ccc(-c2nnc(SCC(=O)NC3CCCC3)n2C)cc1", "hERG current change (%, negative = inhibition) at 1uM": 16.3}, {"smiles": "COc1ccc(NCc2cc3ccccc3[nH]c2=O)cc1", "hERG current change (%, negative = inhibition) at 1uM": 10.1}, {"smiles": "CCOC(=O)Cc1csc(NC(=O)CCS(=O)(=O)Cc2ccccc2)n1", "hERG current change (%, negative = inhibition) at 1uM": 13.6}, {"smiles": "COc1ccccc1C(=O)CSc1ccccn1", "hERG current change (%, negative = inhibition) at 1uM": 3.31}, {"smiles": "Oc1ccc(N=Nc2ccc(Br)cc2)c(O)c1", "hERG current change (%, negative = inhibition) at 1uM": 9.69}, {"smiles": "COc1ccc(-c2cc(C(=O)OCC(=O)N3CCCC3)c3ccccc3n2)cc1", "hERG current change (%, negative = inhibition) at 1uM": 1.85}, {"smiles": "O=C(c1ccc(Cl)cc1)N1CCCOC1", "hERG current change (%, negative = inhibition) at 1uM": 13.4}, {"smiles": "COc1ccc(C(=O)N2CCN(c3ccc(NC(=O)c4cccnc4)cc3)CC2)cc1", "hERG current change (%, negative = inhibition) at 1uM": -13.7}, {"smiles": "Br.CC(=O)N1c2ccccc2C2(O)N=C(C)SC12", "note": "(stereo not shown)", "hERG current change (%, negative = inhibition) at 1uM": 15.9}, {"smiles": "Cc1ccc(S(=O)(=O)N2CCCCC2)cc1NC(=O)COC(=O)c1ccccc1F", "hERG current change (%, negative = inhibition) at 1uM": 3}, {"smiles": "Cn1cccc1/C=C1/C(=O)NC(=S)N(Cc2ccc(F)cc2)C1=O", "hERG current change (%, negative = inhibition) at 1uM": -2.42}, {"smiles": "N=c1ncn(CC(O)CN2CCOCC2)c2nc(N3CCOCC3)[nH]c12", "note": "(stereo not shown)", "hERG current change (%, negative = inhibition) at 1uM": 0.764}, {"smiles": "COc1ccc(C2/C(=C(/O)c3ccc(F)cc3)C(=O)C(=O)N2CCCN2CCOCC2)cc1OC", "note": "(stereo not shown)", "hERG current change (%, negative = inhibition) at 1uM": 13}, {"smiles": "Cc1cc(C)c2c(n1)nn1c(N3CCN(c4ccccc4C)CC3)cc(C)nc21", "hERG current change (%, negative = inhibition) at 1uM": 10.9}, {"smiles": "COCCNC(=O)CN1C(=O)CSc2cc(S(=O)(=O)N3CCCCCC3)ccc21", "hERG current change (%, negative = inhibition) at 1uM": 9.78}, {"smiles": "Cc1nnc(NC(=O)CCCOc2ccccc2)s1", "hERG current change (%, negative = inhibition) at 1uM": 8.42}, {"smiles": "O=C(NCc1ccco1)/C(=C/c1ccc(C(F)(F)F)cc1)c1nc2ccccc2[nH]1", "hERG current change (%, negative = inhibition) at 1uM": 10.6}, {"smiles": "Cc1ccccc1N(C(=O)c1snc(C(N)=O)c1N)C(C(=O)NC1CCCCC1)c1ccc(O)cc1", "note": "(stereo not shown)", "hERG current change (%, negative = inhibition) at 1uM": 12.3}]}]}
